# From a collection of fitness landscapes (doi:10.1016/j.celrep.2020.107928)
# The full ranking holds about 81,000 sequences; the median of “one-hybrid fitness for binding parS DNA” is about -0.17, and the highest 2% start at about 0.51. The list shows a part of the results.
# B1: Caulobacter ParB omega fusion; a variant is named by its letters at X, in order, B8GW30 (parent)
# chain: MESVVVGEPGMSEGRRGLGRGLSALLGEVDAAPAQAPGEQLGGSREAPIEILQRNPDQPRRTFREEDLEDLSNSIREKGVLQPILVRPSPDTAGEYQIVAGERAWRAAQRAGLKTVPIMVRELDDLAVLEIGIIENVQRADLNVLEEALSYKVLMEKFERTQENIAQTIGKSXSHVANXMRLLXLPDEVQSYLVSGELTAXHARAIAAAADPVALAKQIIEGGLSVRETEALARKAPNLSAGKSKGGRPPRVKDTDTQALESDLSSVLGLDVSIDHRGSTGTLTITYATLEQLDDLCNRLTRGI
# Variants of: B1
# Test: one-hybrid fitness for binding parS DNA (scaled: cognate 1, non-cognate 0); higher = stronger binding
# Conditions: with parS DNA site
# Method in brief: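 Fitness here means the log change in variant-to-wild-type read ratio between plasmids sequenced before and after selection. That scale was set so cognate equals 1 and non-cognate equals 0. The selection was a bacterial one-hybrid screen of Caulobacter ParB libraries, four specificity codons randomised, in E. coli USO carrying a HIS3 reporter with the site 19 bp from the promoter, grown 48 hours at 37°C on M9-minus-histidine with 0.1 mM IPTG and 5 mM 3-AT.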
row,Variant,one-hybrid fitness for binding parS DNA
1,WTTI,≤ 0.2
2,THAL,≤ 0.2
3,GWKS,≤ 0.2
4,RPQK,≤ 0.2
5,LQIS,≤ 0.2
6,DKHR,≤ 0.2
7,VPDF,≤ 0.2
8,SLTF,≤ 0.2
9,RARM,0.343
10,ADFD,≤ 0.2
11,RIPE,≤ 0.2
12,VVVT,≤ 0.2
13,GECG,≤ 0.2
14,QWSN,≤ 0.2
15,RTEA,0.58
16,KTWN,≤ 0.2
17,WRWG,≤ 0.2
18,GNCS,≤ 0.2
19,TFHY,≤ 0.2
20,MATY,≤ 0.2
21,TAKN,≤ 0.2
22,RFSA,0.572
23,RHNY,0.37
24,GQQL,≤ 0.2
25,QFHG,≤ 0.2

row,Variant,one-hybrid fitness for binding parS DNA
1,TYCK,≤ 0.2
2,KGTE,≤ 0.2
3,WNIG,≤ 0.2
4,SNKL,≤ 0.2
5,KGVE,≤ 0.2
6,PTLI,≤ 0.2
7,LETV,≤ 0.2
8,PHPY,≤ 0.2
9,RWSF,≤ 0.2
10,QAGM,≤ 0.2
11,VAIC,≤ 0.2
12,WYRG,≤ 0.2
13,FKMT,≤ 0.2
14,KMCC,≤ 0.2
15,KRSW,≤ 0.2
16,YATS,≤ 0.2
17,YEGR,≤ 0.2
18,IMDR,≤ 0.2
19,YGKT,≤ 0.2
20,ICSY,≤ 0.2
21,QMQP,≤ 0.2
22,QMRL,≤ 0.2
23,RCVM,0.298
24,IACC,≤ 0.2
25,RPSE,≤ 0.2

row,Variant,one-hybrid fitness for binding parS DNA
1,MGHV,≤ 0.2
2,STLY,≤ 0.2
3,CCRE,≤ 0.2
4,VMGR,≤ 0.2
5,VYNG,≤ 0.2
6,QYYL,≤ 0.2
7,TRYI,≤ 0.2
8,HRKE,≤ 0.2
9,PVDG,≤ 0.2
10,HSEF,≤ 0.2
11,SCFT,≤ 0.2
12,LDPI,≤ 0.2
13,VHMG,≤ 0.2
14,LPDR,≤ 0.2
15,AQKM,≤ 0.2
16,WWRR,≤ 0.2
17,NSMG,≤ 0.2
18,IDYR,≤ 0.2
19,QQPA,≤ 0.2
20,RQGN,0.441
21,HGHR,≤ 0.2
22,HCTD,≤ 0.2
23,MKQR,≤ 0.2
24,EDES,≤ 0.2
25,WELN,≤ 0.2

row,Variant,one-hybrid fitness for binding parS DNA
1,QEST,≤ 0.2
2,VHYG,≤ 0.2
3,AKSY,≤ 0.2
4,EGAS,≤ 0.2
5,NEAR,≤ 0.2
6,GVKG,≤ 0.2
7,WMRS,≤ 0.2
8,PTDS,≤ 0.2
9,QSKH,≤ 0.2
10,QQAC,≤ 0.2
11,LTYM,≤ 0.2
12,HCSW,≤ 0.2
13,WPET,≤ 0.2
14,HMYE,≤ 0.2
15,ATFE,≤ 0.2
16,YRWS,≤ 0.2
17,IYSA,≤ 0.2
18,HVWS,≤ 0.2
19,PKPD,≤ 0.2
20,MHKS,≤ 0.2
21,HSTG,≤ 0.2
22,QYPY,≤ 0.2
23,NQTR,≤ 0.2
24,NRTW,≤ 0.2
25,QLIY,≤ 0.2

row,Variant,one-hybrid fitness for binding parS DNA
1,TVDG,≤ 0.2
2,PEAY,≤ 0.2
3,GCFC,≤ 0.2
4,FTNP,≤ 0.2
5,TKAS,≤ 0.2
6,CFQR,≤ 0.2
7,RIEF,≤ 0.2
8,EPRQ,≤ 0.2
9,EVWR,≤ 0.2
10,QYTV,≤ 0.2
11,EKLD,≤ 0.2
12,QGTG,≤ 0.2
13,AFRL,≤ 0.2
14,PGKR,≤ 0.2
15,PWGS,≤ 0.2
16,GLAP,≤ 0.2
17,RRNY,0.727
18,MEGT,≤ 0.2
19,KALR,≤ 0.2
20,SPYR,≤ 0.2
21,PLMH,≤ 0.2
22,AIHG,≤ 0.2
23,RKMS,0.876
24,HSSM,≤ 0.2
25,VGTH,≤ 0.2

row,Variant,one-hybrid fitness for binding parS DNA
1,NHTS,≤ 0.2
2,VPRE,≤ 0.2
3,QAMD,≤ 0.2
4,MTTR,≤ 0.2
5,PMVF,≤ 0.2
6,HSTV,≤ 0.2
7,RYFY,0.43
8,HPDP,≤ 0.2
9,DKQR,≤ 0.2
10,NSHA,≤ 0.2
11,RLDA,0.588
12,HGKW,≤ 0.2
13,IQYG,≤ 0.2
14,CRDR,≤ 0.2
15,RSAF,0.266
16,AMAM,≤ 0.2
17,STGL,≤ 0.2
18,YKRQ,≤ 0.2
19,PPSC,≤ 0.2
20,RTYS,1
21,GCPT,≤ 0.2
22,VSVN,≤ 0.2
23,IWGT,≤ 0.2
24,REIS,≤ 0.2
25,CYHP,≤ 0.2

row,Variant,one-hybrid fitness for binding parS DNA
1,AYQT,≤ 0.2
2,TVSW,≤ 0.2
3,ACEA,≤ 0.2
4,QQDM,≤ 0.2
5,VNLV,≤ 0.2
6,NVTC,≤ 0.2
7,GADR,≤ 0.2
8,VDQK,≤ 0.2
9,GILS,≤ 0.2
10,GQSV,≤ 0.2
11,DFWS,≤ 0.2
12,TITY,≤ 0.2
13,KGPS,≤ 0.2
14,TFDY,≤ 0.2
15,GRCN,≤ 0.2
16,APVQ,≤ 0.2
17,RSTV,≤ 0.2
18,LPIS,≤ 0.2
19,HAGC,≤ 0.2
20,HYSY,≤ 0.2
21,YATP,≤ 0.2
22,FFCR,≤ 0.2
23,QLDL,≤ 0.2
24,DAFR,≤ 0.2
25,QQHD,≤ 0.2

row,Variant,one-hybrid fitness for binding parS DNA
1,CPLR,≤ 0.2
2,LNCA,≤ 0.2
3,MCHS,≤ 0.2
4,MGES,≤ 0.2
5,PSFY,≤ 0.2
6,KRPR,≤ 0.2
7,TLFS,≤ 0.2
8,PFLR,≤ 0.2
9,RANG,1
10,NHSF,≤ 0.2
11,PRLC,≤ 0.2
12,ELRR,≤ 0.2
13,RQDR,≤ 0.2
14,STNA,≤ 0.2
15,YSKA,≤ 0.2
16,LLFG,≤ 0.2
17,TNIW,≤ 0.2
18,VGKV,≤ 0.2
19,TAKP,≤ 0.2
20,HRRR,≤ 0.2
